Measurements: PubChem BioAssay AID662 (National Center for Advancing Translational Sciences (NCATS), 2007)
Among all 71,000 compounds or so, about 1,800 (2.5%) were called active. Inconclusive results, whose numbers are uncertain, are shown with a selection of clear calls. Calls come from the whole dose curve; as a rule, active = well fitted activation curve with a large enough effect in the signal ratio, with a control signal flat (not every such curve was filed as active); inconclusive = small, poorly fitted or top-dose-only effect, or effect the other way, or a change in a side signal; inactive = flat fitted curve, though single readings scatter; the % refers to the signal ratio. Potencies beside an inconclusive call are fits to weak or partial responses and may not hold up.

Experiment: Cell signaling CRE-BLA (Fsk stim); for activity change, negative = inhibition: % of control where 0% means no effect
Details: CHO CRE-bla reporter (cAMP response element driving beta-lactamase), forskolin EC10, beta-lactamase ratio; activity change, negative = inhibition: at 38.2 µM (top of the series) unless noted
In short: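 CHO CRE-bla cells, overnight plating in Opti-MEM with 0.5% dialyzed FBS; cpd titration + EC10 NKH 477, 3 h 37 °C; CCF4 2 h RT; ex 405/em 460 vs 530 ratio → %Activity, AC50.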
Potency is the fitted concentration of half-maximal effect; tags give direction and shape of the fitted curve.

Row | SMILES | activity change, negative = inhibition | Potency
1 | COc1ccc(N=CC2=C(O)CCCC2=O)cc1 | inconclusive: -9.81% | –
2 | COc1ccccc1N1CCN(C(=O)Cc2cccs2)CC1 | inconclusive: -21.6% [at 7.6 µM] | –
3 | CCOc1ccccc1C(=O)Nc1nncs1 | – | active: 12.6 µM
4 | Cc1ccc(NC(=O)N2C(=O)C3(OCCO3)c3ccccc32)cc1 | – | inactive
5 | Cc1ccccc1-c1cc(N(C)Cc2ccco2)ncn1 | – | inactive
6 | O=C(Nc1cccc(C(F)(F)F)c1)N1CCC(c2nc(-c3ccc(F)cc3)no2)CC1 | – | inactive
7 | COc1ccc2c(c1)c(=O)c(Br)c(C)n2Cc1ccccc1 | – | inconclusive: 6.31 µM [rising, partial curve]
8 | Cc1ccccc1OCC(=O)Nc1ccccc1N1CCOCC1 | inconclusive: 26.3% | –
9 | O=C(CSc1nnc(NC(=O)C2CCC2)s1)Nc1ccc(N2CCOCC2)cc1 | inconclusive: -26% | –
10 | CCOC(=O)c1c(C)c(C(=O)NCc2ccccn2)c(C)n1CC | inconclusive: 23% | –
11 | Cc1nn2c(N3CCCC3)cc(C(C)C)nc2c1-c1ccccc1 | inconclusive: 14.5% | –
12 | CCOc1cc(-c2c(C#N)c(N)nc3c2CCCC3C)ccc1O (centres undefined) | – | inconclusive: 7.94 µM [rising, partial curve]
13 | O=C(c1cc2ccccc2c(=O)o1)N1CCc2ccccc2C1 | inconclusive: -18.3% | –
14 | Cc1ccc(Cn2c(CN3CC(C)OC(C)C3)nc3c2c(=O)[nH]c(=O)n3C)cc1 (centres undefined) | inconclusive: 10.2% | –
15 | COc1cc2c(cc1NC(=O)CSc1nnc(Cc3cccs3)n1C)oc1ccccc12 | inconclusive: 18.6% | –
16 | CCOc1ccccc1-n1c(COc2ccccc2)nnc1SCC(N)=O | inconclusive: 7.19% | –
17 | CCOC(=O)c1c(NC(=O)CSc2nnnn2C)sc(CC)c1C | – | inconclusive: 10 µM [rising, partial curve]
18 | Oc1ccccc1Oc1ncc(Br)c(N2CCOCC2)n1 | – | inconclusive: 10 µM [rising, single point]
19 | COC(=O)CSc1nc2c(c(-c3ccc(C)o3)c1C#N)CCCC2 | inconclusive: 13% | –
20 | CC(=O)Nc1ccc(C(=O)CSc2nnc3scc(-c4ccccc4)n23)cc1 | inconclusive: 24.6% | –
21 | CCS(=O)(=O)N1CCN(C(=O)c2cccc(OC)c2)CC1 | – | inactive

Row | SMILES | activity change, negative = inhibition | Potency
22 | COC(=O)c1cc2c(=O)n3ccccc3nc2n(C(C)C)c1=N | – | inconclusive: 6.31 µM [rising, partial curve]
23 | CSc1nnc(CNC(=O)c2ccccc2)n1-c1ccc(F)cc1 | – | inactive
24 | O=c1[nH]c2cc3c(cc2cc1CN(Cc1nnnn1CC1CCCO1)C1CCCC1)OCO3 (centres undefined) | inconclusive: -10.8% [fluorescent] | –
25 | CCn1ccc(C(=O)Nc2ccc(Cl)cn2)n1 | – | inactive
26 | C[C@@H](C(=O)O)/C(=C/c1ccc2c(c1)OCO2)C(=O)O | inactive: 0% [at 7.6 µM] | –
27 | N#Cc1c(NC(=O)Cn2c(=O)oc3ccccc32)oc(-c2ccccc2)c1-c1ccccc1 | – | inactive
28 | O=C(NCc1ccccc1)c1cnsn1 | inconclusive: -9.32% | –
29 | O=c1c(-c2cc(F)cc(F)c2)nc2cnc(N3CCOCC3)nc2n1CCc1ccccc1 | – | inconclusive: 0.631 µM [rising, full curve]
30 | COCCn1c(=O)c(C)nc2cnc(Nc3cccc(OC)c3)nc21 | – | active: 12.6 µM
31 | Cc1cc(N2CCOCC2)nc(NCc2ccccc2)n1 | – | inconclusive: 0.316 µM [rising, full curve, poor fit]
32 | CC1Cc2nc(SCC(=O)Nc3nccs3)n(Cc3ccccc3)c(=O)c2S1 (centres undefined) | – | active: 12.6 µM
33 | CCCCS(=O)CC(O)COc1ccc(C(C)(C)C)cc1 (centres undefined) | inconclusive: 8.42% [at 7.6 µM] | –
34 | Fc1ccccc1OCCCCn1cncn1 | inconclusive: -0.113% | –
35 | Nc1ccc(CN2CCN(c3ccc4ccccc4n3)CC2)cc1 | inconclusive: 2.64% | –
36 | COc1ccc(C(=O)N2CCC[C@@]3(CCN(Cc4nccs4)C3)C2)cc1 | – | inactive
37 | Cc1cccc(NC(=O)c2cnc3sccn3c2=O)c1C | – | inactive
38 | CCOC(=O)Cn1cnc2c(C#N)c3n(c2c1=O)CCCCC3 | inconclusive: 20.1% | –
39 | COc1ccccc1CN1C(=O)CCC1(C)C(=O)NCc1cccnc1 (centres undefined) | inconclusive: 11.6% | –
40 | COC(=O)N1CCN(c2ccc(OC)cc2)CC1 | – | inactive
41 | Cc1cc(-n2nnc3ccccc32)nc2ccccc12 | inconclusive: 28.1% | –
42 | COc1cc(C2C(C#N)=C(N)Oc3cc(N(C)C)ccc32)cc2c1OCO2 (centres undefined) | – | active: 1.26 µM

Row | SMILES | activity change, negative = inhibition | Potency
43 | O=C(c1cc2nc(-c3ccco3)cc(C(F)(F)F)n2n1)N1CCN(c2ccccn2)CC1 | – | inconclusive: 6.31 µM [rising, partial curve]
44 | COC(=O)C(C)Sc1nc2c(c(=O)[nH]c(=O)n2C)n1CCC(C)C (centres undefined) | – | inconclusive: 12.6 µM [rising, single point]
45 | COc1ccc(Cl)cc1NC(=O)CN(C)C(C)C(=O)NCC1CCCCC1 (centres undefined) | inconclusive: -4.59% | –
46 | COc1cc(C)c2occ(/C(C)=N\O)c2c1 | – | inconclusive: 15.8 µM [rising, single point]
47 | CCOC(=O)c1c(C)n(OCc2ccccc2)c2ccc3nonc3c12 | – | active: 10 µM
48 | O=C(CSc1nc2ccccc2c(=O)[nH]1)Nc1ccc(S(=O)(=O)N2CCCC2)cc1 | inconclusive: 20.7% | –
49 | CN(C)c1nc(-c2ccc3c(c2)OCO3)nc2ccccc12 | – | inconclusive: 12.6 µM [rising, partial curve]
50 | CC(OC(=O)CCc1nc2ccccc2[nH]c1=O)C(=O)c1ccccc1 (centres undefined) | – | inactive
51 | COc1cc2c3cc1Oc1cc(ccc1O)C[C@@H]1c4c(cc(OC)c(O)c4Oc4ccc(cc4)C[C@H]3[N+](C)(C)CC2)CC[N+]1(C)C | inactive: -15.5% [at 7.6 µM] | –
52 | Cc1cc2nc(NC3=NCN(CCN4CCOCC4)CN3)nc(C)c2cc1C | – | inactive
53 | Cc1ccc(-c2nc3cccnc3o2)cc1NC(=O)COc1ccc(Cl)cc1C | – | inactive
54 | COc1ccc(CNc2nc(-c3cccnc3)nc3ccccc23)c(OC)c1 | – | active: 3.16 µM
55 | Cc1ccc(C)c(S(=O)(=O)Nc2ccc(S(=O)(=O)Nc3onc(C)c3C)cc2)c1 | inconclusive: -18.7% | –
56 | Cc1cccc(N2C(=O)c3cccc4c(N(C)CCO)ccc(c34)C2=O)c1 | – | inconclusive: 5.01 µM [falling, single point]
57 | CCC(C)[C@@H](NC(=O)OC(C)(C)C)c1nnc(S(=O)(=O)Cc2cccc(C)c2)o1 (some centres undefined) | inconclusive: 18.2% [cytotoxic] | –
58 | CCCCC(=O)NC1=NC(=O)C(C)(C)S1 | inconclusive: 17.7% | –
59 | COC(=O)c1cc2c(s1)-c1ccccc1OC2 | – | inconclusive: 25.1 µM [rising, single point]
60 | COc1ccccc1NC(=O)Cn1cnc2c(cnn2-c2ccc(C)c(C)c2)c1=O | – | inconclusive: 10 µM [rising, single point]
61 | COc1ccc(CCNC(=O)CN2CCCc3ccccc32)cc1OC | – | inconclusive: 3.98 µM [falling, partial curve]
62 | CCc1nnc(NC(=O)CSc2nnc(Cc3cccn3C)n2CCOC)s1 | – | inconclusive: 10 µM [rising, single point]
63 | CON(C)c1nc(OCCNC(=O)COc2ccc(Cl)cc2C)nc(N(C)C)n1 | inconclusive: 13.2% | –

Row | SMILES | activity change, negative = inhibition | Potency
64 | O=S(=O)(c1ccccc1)c1nc(-c2ccco2)oc1NCc1ccco1 | – | inactive
65 | O=C(NC1(C(F)(F)F)NC(=O)N(C2CCCC2)C1=O)C1CC1 (centres undefined) | – | inconclusive: 2.51 µM [rising, partial curve]
66 | COc1ccc(-c2ccc(=O)n(Cc3cc(=O)n4ccccc4n3)n2)cc1 | – | active: 10 µM
67 | CCc1cc2c3c(c(=O)oc2cc1O)CCCC3 | – | inconclusive: 10 µM [rising, partial curve]
68 | Cn1c(=O)c2c(ncn2CCN(CCO)Cc2ccccc2)n(C)c1=O | – | inactive
69 | CCOc1ccc2nc(NC(=O)c3ccc(S(=O)(=O)N4CCOCC4)cc3)sc2c1 | – | inconclusive: 7.94 µM [rising, partial curve]
70 | Cn1ncc(C#N)c1/N=C/N1CCCCC1 | inconclusive: -2.19% | –
71 | CCOC(=O)CN(C(=O)CSc1nnc2c(n1)[nH]c1ccc(OC)cc12)c1ccc(F)cc1 | – | inconclusive: 12.6 µM [rising, partial curve]
72 | COC(=O)c1ccc(OCC(=O)c2ccc(O)cc2O)cc1 | inconclusive: -17.5% | –
73 | c1cncc(-c2nc3ccccc3o2)c1 | inconclusive: -0.923% | –
74 | COc1ccc2c(c1OC)C(=O)N(c1ccc3c(c1)CCC3)C2=O | inconclusive: -6.99% | –
75 | COC(=O)C1=C(CN2CCc3ccccc32)NC(=O)NC1c1cc(C)ccc1C (centres undefined) | – | inconclusive: 12.6 µM [rising, partial curve]
76 | CC(NC(=O)OC1CCCCC1)N1C(=O)C2C3C=CC(C3)C2C1=O (centres undefined) | – | inactive
77 | COCCN1Cc2cccc(C(=O)NC3CCCCCC3)c2C1=O | – | inactive
78 | CCN(CC)CCOC(=O)C1(c2ccc([N+](=O)[O-])cc2)CCCC1 | inconclusive: -15.2% | –
79 | CCOc1ccc2nc(NC3=NCN(Cc4ccco4)CN3)nc(C)c2c1 | – | inactive
80 | Cc1cc(C)n(-c2nc(C)nc(NCc3ccccc3)n2)n1 | – | inconclusive: 10 µM [rising, partial curve]
81 | O=C1c2oc3ccccc3c(=O)c2C(c2cccc(F)c2)N1CCCO (centres undefined) | inconclusive: -11.3% | –
82 | CCOc1ccc2[nH]c(=O)c(=O)[nH]c2c1 | – | inactive
83 | Cc1ccc2oc3c(c(=O)c2c1)C(c1cccc(O)c1)N(c1ccccn1)C3=O (centres undefined) | – | inactive
84 | O=C1[C@@H]2C(Cc3ccc(O)cc3)NC3(C(=O)Nc4ccc(F)cc43)[C@@H]2C(=O)N1c1ccc(F)cc1 (some centres undefined) | inconclusive: -28.9% | –
